According to publication PMC4336329 (PLoS ONE, 2015):
Out of some 310,000 compounds screened, about 14,000 (4.5%) showed an effect of 50% or more. Effects have a minus sign here. The list shows a part of the results.

Each compound was assayed against human ether-à-go-go-related gene (hERG) potassium channel (human, UniProt Q12809) (assay: primary screen, population patch clamp on CHO cells stably expressing hERG).
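Note: peak tail current of the secondary pulse compared with the same well before compound.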

Chain of human ether-à-go-go-related gene (hERG) potassium channel (Q12809 whole entry, looked up): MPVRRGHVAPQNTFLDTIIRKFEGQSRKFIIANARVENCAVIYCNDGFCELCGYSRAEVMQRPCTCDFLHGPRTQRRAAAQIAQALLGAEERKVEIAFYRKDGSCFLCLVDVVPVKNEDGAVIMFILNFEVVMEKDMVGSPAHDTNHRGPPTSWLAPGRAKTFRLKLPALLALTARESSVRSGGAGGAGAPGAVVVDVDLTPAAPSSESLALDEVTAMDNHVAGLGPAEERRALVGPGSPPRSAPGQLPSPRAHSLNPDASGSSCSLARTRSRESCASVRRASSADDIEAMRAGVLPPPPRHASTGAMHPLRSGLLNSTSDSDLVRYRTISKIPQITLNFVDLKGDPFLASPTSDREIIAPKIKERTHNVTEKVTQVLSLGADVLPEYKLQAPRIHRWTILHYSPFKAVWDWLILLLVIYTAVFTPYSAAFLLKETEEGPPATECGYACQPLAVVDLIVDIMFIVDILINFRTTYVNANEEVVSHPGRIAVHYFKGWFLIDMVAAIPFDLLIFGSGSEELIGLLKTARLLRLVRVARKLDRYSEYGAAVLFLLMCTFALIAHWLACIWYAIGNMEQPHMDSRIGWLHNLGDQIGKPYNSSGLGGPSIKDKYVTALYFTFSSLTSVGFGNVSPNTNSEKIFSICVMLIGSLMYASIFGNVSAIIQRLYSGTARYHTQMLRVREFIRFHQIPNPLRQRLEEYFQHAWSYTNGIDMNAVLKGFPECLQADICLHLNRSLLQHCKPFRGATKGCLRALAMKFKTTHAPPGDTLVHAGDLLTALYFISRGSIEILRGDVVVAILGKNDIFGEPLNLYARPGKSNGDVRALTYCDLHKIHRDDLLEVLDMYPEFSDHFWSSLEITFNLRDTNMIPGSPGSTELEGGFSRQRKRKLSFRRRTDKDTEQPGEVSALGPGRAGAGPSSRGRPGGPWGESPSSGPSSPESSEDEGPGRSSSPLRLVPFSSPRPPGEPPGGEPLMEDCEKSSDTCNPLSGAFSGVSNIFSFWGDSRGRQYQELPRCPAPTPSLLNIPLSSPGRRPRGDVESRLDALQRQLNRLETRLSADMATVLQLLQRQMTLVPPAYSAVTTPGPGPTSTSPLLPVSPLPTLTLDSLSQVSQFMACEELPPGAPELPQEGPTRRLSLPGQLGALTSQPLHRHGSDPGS

Row | Structure (SMILES) | hERG current change (%, negative = inhibition) at 10uM
1 | O=C(O)c1ccc(Nc2nc3c(s2)CCCC3)cc1 | -81.3%
2 | COC(=O)C(NC(=O)CCc1nnc2ccc(N3CCCCC3)nn12)C(C)C (stereo not shown) | -0.109%
3 | Cn1c(=O)c(C(=O)COC(=O)c2cc(-c3ccccc3)nc3ccccc23)c(N)n(Cc2ccccc2)c1=O | 6.8%
4 | C/C(=N\NC(=O)c1ccn(C)n1)c1ccc(NC(=O)C2CCCC2)cc1 | 4.84%
5 | CCNC(=O)Nc1cc2nc(C)n(Cc3ccc(Br)cc3)c2nc1C | -0.223%
6 | CC(C)C(NS(=O)(=O)c1ccccc1)C(=O)N1CCCC1 (stereo not shown) | 21.4%
7 | Cc1cccc(NC2=C(C#N)C(=O)NC3(CCCC3)S2)c1 | 0.0945%
8 | Cc1ccc(NCc2nnc(SCC#N)o2)c(C)c1 | -2.24%
9 | CCN(CC)Cc1c(O)ccc2c(-c3ccccc3)cc(=O)oc12 | -22.9%
10 | CCCCN1C(=O)C(=O)N(CC(=O)Nc2sc(C)c(CC)c2C(=O)OCC)C1=O | 12.2%
11 | CC(C(=O)NC1CC1)c1ncc(C(F)(F)F)cc1Cl (stereo not shown) | 13.6%
12 | Cc1ccc2nc(NC(=O)CNS(=O)(=O)c3ccc(Br)s3)sc2c1 | 1.51%
13 | CCc1ccc(-c2cc(C)no2)cc1S(=O)(=O)NCCc1ccc(S(N)(=O)=O)cc1 | -16.6%
14 | Cc1cc(NCCCO)n2c(nc3ccccc32)c1C#N | 4.18%
15 | NC(=O)NOCc1ccccc1F | 11.3%
16 | COc1cccc(OCc2cc(C(=O)N3CCN(C(=O)c4ccco4)CC3)no2)c1 | -51.7%
17 | COc1ccc2c(c1)CCc1c(C(=O)NCc3ccc(F)cc3)noc1-2 | 11.6%
18 | CCCn1c(SCC(=O)Nc2nc(C)c(C(=O)OC)s2)nnc1C(C)C | -18%
19 | COc1ccccc1NS(=O)(=O)c1ccc2c(c1)N(C(C)=O)CC(C)S2 (stereo not shown) | -16.2%
20 | O=C(O)CC/C(=C\c1ccccc1[N+](=O)[O-])c1nc2ccccc2s1 | 8.96%
21 | CCOC(=O)c1cn(CC)c2cc(N3CCCCC3)c(F)cc2c1=O | -2.96%
22 | O=[N+]([O-])c1cccc(NNS(=O)(=O)c2ccccc2F)c1 | -29.4%

Row | Structure (SMILES) | hERG current change (%, negative = inhibition) at 10uM
23 | CC1=CC=CC2=N/C(=N\S(=O)(=O)c3ccc(F)cc3F)c3ccccc3CN12 | -20.3%
24 | CN(C)c1ccc(N=Cc2ccco2)cc1 | -0.214%
25 | CC(=O)N1CCCc2ccc(NS(=O)(=O)c3ccccc3)cc21 | 11.1%
26 | CCN(CC)C(=O)Cn1cc(S(=O)(=O)CC(=O)Nc2ccc(F)cc2F)c2ccccc21 | -3.36%
27 | O=C(Nc1nccs1)c1ccc(NC(=O)c2ccco2)cc1 | -7.05%
28 | CCCCCCCCSc1n[nH]c(N)n1 | -4.48%
29 | COc1ccc(N(C)S(=O)(=O)c2cccc(C(=O)OC(C)C(=O)NC3CCCCC3C)c2)cc1 (stereo not shown) | 2.83%
30 | Cc1c(NC(=O)CSc2n[nH]c(=O)n2-c2ccccc2)c(=O)n(-c2ccccc2)n1C | 16.9%
31 | CCOC(=O)c1[nH]c(C)c(C(=O)N2CCc3c([nH]c4ccccc34)C2c2ccccn2)c1C (stereo not shown) | -0.347%
32 | COc1cccc(CC(=O)Nc2cc(S(=O)(=O)N3CCOCC3)ccc2N2CCN(C)CC2)c1 | -36.1%
33 | O=C(NC(=S)Nn1cnc2c(cnn2-c2ccccc2)c1=O)c1ccc(Cl)cc1 | 3.9%
34 | CC1CCCCC1NC(=O)C1CC(=O)N(Cc2ccccc2)C1 (stereo not shown) | 11.1%
35 | N/C(=N\OC(=O)Nc1ccccc1)c1ncc([N+](=O)[O-])s1 | -2.31%
36 | CSc1nc(Cl)c(Cc2ccc(OC(C)C)cc2)c(N2CCOCC2)n1 | -8.81%
37 | Cc1nn(-c2ccccc2)c(C)c1C(=O)OCC(=O)N1CC(=O)Nc2ccccc21 | 1.89%
38 | O=C(COC(=O)/C=C/c1ccc(F)cc1)NCc1ccco1 | 1.28%
39 | Cc1oc(-c2ccc(Cl)cc2)nc1CS(=O)CC(=O)NCCN1CCCCCC1 (stereo not shown) | -39.4%
40 | CCn1c(Oc2ccccc2C)nc2c1c(=O)n(C)c(=O)n2C | 5.49%
41 | CCN1CCN(C(=O)c2ccc(N3CC4CC(C3)c3cccc(=O)n3C4)c(NC(=O)c3cc(OC)cc(OC)c3)c2)CC1 (stereo not shown) | 15.4%
42 | CCn1ccc(C(=O)NC2=C(C#N)CCC2)n1 | 23.5%
43 | CCc1cc(Cn2nc(-c3ccccc3)cc2C(=O)NCC2CC2)on1 | -51.8%
